Results: the supplement of paper PMC3724861
The other results are listed elsewhere or left out.

Each sequence was assayed on T1, Caupolican (Caup) homeodomain DNA-binding domain (assay: PBM E-score (8-mer, recovered from the published 9-mer minima) (E-score (dimensionless, -0.5 to 0.5)); Drosophila protein; higher = stronger relative binding preference, active = 0.31 or more).
T1 sequence: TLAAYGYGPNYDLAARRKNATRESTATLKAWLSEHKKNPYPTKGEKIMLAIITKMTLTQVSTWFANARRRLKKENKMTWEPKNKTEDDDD
Summary of the method: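 Caup's homeodomain DNA-binding domain (residues 214-303) was made by in vitro transcription and translation and applied at 100 nM to custom-designed protein binding microarrays. Each value is an enrichment score that gives relative binding preference for a short DNA word, with higher meaning stronger. The 8-mer values were recovered from published 9-mer scores, each of which was the minimum of its two constituent 8-mer scores. A cutoff of 0.31 marks candidate sites.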

Sequence | PBM E-score
ATTTCGGG | inactive: -0.0916
AAAGGGAC | inactive: -0.0908
CGCTACGC | inactive: -0.278
ACGCTCAT | ≥ 0.0645
GGTCTGCA | inactive: -0.122
CCACAAAC | inactive: -0.0326
GCCCGTAC | inactive: -0.0447
AGCCCTCA | inactive: -0.12
GTTGAACA | inactive: 0.222
GGTCCCCA | inactive: -0.273
TAAGAAAA | inactive: 0.0363
CGTTCCAA | inactive: 0.0102
CTCAAAAA | inactive: 0.00385
AAACTAGG | inactive: 0.0278
CAGATGCG | inactive: -0.00655
ATTTCAGA | inactive: 0.0637
CGCAACGA | inactive: -0.035
AACTTCGG | inactive: 0.0203
GTTTCATA | inactive: -0.012
AACCGTAA | inactive: -0.0196
GTCTGAAA | inactive: 0.0824
CAGATTAA | inactive: 0.0738
GAATAATC | inactive: 0.0987
CTCGGACC | inactive: -0.171
AGACCCAG | inactive: -0.195

Sequence | PBM E-score
GTCTACAA | inactive: 0.185
ACCCGCCA | inactive: -0.0916
AGCTGCCG | inactive: -0.255
ACCCCAGA | inactive: -0.199
CGATGTAC | active: 0.374
CCGTTCCG | inactive: -0.195
AAGGACGG | inactive: -0.169
ACAAGCAA | active: 0.341
CAGCCTGC | inactive: -0.106
CTAAGCGC | inactive: -0.176
CGAACTTC | inactive: 0.0514
CAAAGCGA | inactive: -0.0671
CCTTGCTC | inactive: -0.0337
CATGATAG | inactive: 0.106
AATTCGTG | inactive: 0.0311
ATGCACAC | inactive: 0.139
GGTCTCAC | inactive: -0.0324
ATGGTACG | inactive: 0.0989
AGATTAAT | inactive: 0.0555
CCCACGGA | inactive: -0.157
AAGGGTGT | inactive: 0.117
TAGAGCTA | inactive: -0.00972
AACGAGAG | inactive: 0.0592
CTTTGTTC | inactive: 0.00543
GGCGCCTA | inactive: -0.202

Sequence | PBM E-score
AATACGGA | inactive: 0.0769
GACACCAA | inactive: 0.119
CTGTCCCC | inactive: -0.0725
ACCGGCCT | inactive: -0.155
AACCTTGA | inactive: 0.0304
CGCCGGAA | inactive: -0.206
CAGCCAGC | inactive: -0.181
ATAAGACC | inactive: 0.0461
ATAATCTA | inactive: 0.155
GGCGTCCC | inactive: -0.263
CGCCCTAA | inactive: -0.205
CATACGTC | inactive: 0.0903
GTCTTAAA | inactive: 0.0416
ACCGCGCC | inactive: -0.215
CACGAAAG | inactive: 0.0338
AGTGAACC | inactive: -0.0258
TATAGCAA | inactive: 0.0621
CAGAAGTC | inactive: 0.00548
CTTTAATC | inactive: 0.00156
CAAGGGAA | inactive: 0.0602
GACTGTCA | inactive: 0.0501
GCCCATAC | inactive: -0.0055
AAATCTAT | inactive: 0.0784
CTGTGATC | inactive: 0.0573
ACCGGAAA | inactive: 0.00834

Sequence | PBM E-score
GGATTTAA | inactive: 0.025
TGGCGGAA | inactive: -0.17
TCCCCCAA | inactive: -0.298
CTGGTGCA | inactive: -0.142
CATGACTC | inactive: 0.0721
CCGGAACC | inactive: -0.196
CAGAGCAA | inactive: 0.104
ATAGGTGA | inactive: 0.0609
CTACTCGC | inactive: -0.13
CCGACCAG | inactive: -0.0451
ATCCCCGC | inactive: -0.131
AAGCCAGG | inactive: -0.171
GATTATAC | inactive: 0.0559
ACGATTGA | inactive: 0.119
CCACCCGA | inactive: -0.108
CGACCGTA | inactive: 0.0138
CAGAGTTA | inactive: -0.0217
GTGCTATA | inactive: 0.102
CTTCAAGC | inactive: -0.173
GAGCCCTC | inactive: -0.223
ACTGCAGG | inactive: -0.0592
GGGTTCCA | inactive: -0.163
AGGCATAT | inactive: 0.0491
ATACCTTG | inactive: 0.128
AAACAGAG | inactive: 0.0593

Sequence | PBM E-score
GGTATACA | inactive: 0.183
CCGGCCCG | inactive: -0.203
ATAGGAAC | inactive: 0.105
ATTACGGC | inactive: -0.0236
GTTGGAAA | inactive: 0.0613
GCTCATTA | inactive: -0.0168
CGTACCCA | inactive: -0.101
AGAATCTC | inactive: 0.0299
TACGTTAA | inactive: 0.0692
AATACTCT | inactive: 0.126
ATCCCTCA | inactive: -0.0741
CTAGCCAA | inactive: -0.0769
AGTGCGAA | inactive: 0.0169
CATTTGCG | inactive: 0.00242
ACGTCCAG | inactive: -0.0076
AGAAGACT | inactive: 0.00281
ATAATTTA | inactive: 0.167
GAGTCACC | inactive: -0.149
CGCTTGTA | active: 0.313
CTATTGTA | inactive: 0.229
AAAGGGAG | inactive: -0.15
ACCTAGGA | ≥ -0.00584
GCCGGCAA | inactive: -0.151
ATATCTTA | inactive: 0.178
ACACTGGG | inactive: 0.0164

Sequence | PBM E-score
CAGCTAAC | inactive: 0.0113
CCGATGTC | inactive: 0.165
TCATCTCA | inactive: -0.0128
GGAATGCC | inactive: -0.176
AACTTACT | inactive: 0.0845
ACGCCAGG | inactive: -0.156
CCGCCTCC | inactive: -0.288
AGCACCAG | inactive: -0.00722
TAACGAGA | ≥ 0.15
GCACCACA | inactive: -0.0694
CGGTGGCA | inactive: -0.192
AGATGTGC | inactive: 0.0218
AAAACCAT | inactive: 0.102
AAGTTCTA | inactive: -0.00833
CGACCTTA | inactive: -0.0959
AATAGGTA | inactive: 0.155
ATACATGA | active: 0.4
CGCCAAGA | inactive: -0.223
ACCTGCAA | inactive: -0.023
CAATTCTA | inactive: 0.0767
AGCTGTAC | inactive: 0.125
ATTCATGG | inactive: -0.039
GCCGCTAA | inactive: -0.173
CATTGAAA | inactive: 0.0811
CCCATGGA | inactive: 0.021

Sequence | PBM E-score
CACCGTGA | inactive: 0.00811
ACGCCGCT | inactive: -0.134
AAACCTAC | inactive: 0.126
ACCCGCAG | inactive: -0.142
AACATATT | active: ≥ 0.347
GGTCATTA | inactive: 0.0303
ATGATCAC | inactive: 0.142
TCTTCTAA | inactive: 0.0484
ACGCAAGC | inactive: 0.0155
AGAACCAT | inactive: 0.0755
TAATTTAA | inactive: 0.112
GATCTGCA | inactive: -0.0796
CATAGTCC | inactive: 0.0382
CTTCTCTA | inactive: -0.0517
AATACCTC | inactive: 0.00824
AGCAGTTA | inactive: -0.0121
AGAGTACC | inactive: 0.101
ACTAAGGG | inactive: -0.0778
AAGCCGCC | inactive: -0.241
CTCAAGAA | inactive: -0.0293
CCACTGCC | inactive: -0.171
CTTCTAGC | inactive: -0.0818
CATGGAAC | inactive: 0.0872
GGATGAAA | inactive: -0.0306
CCGAAGGC | inactive: -0.288

Sequence | PBM E-score
AGATGGCC | inactive: -0.151
GATAGCGC | inactive: -0.107
ACTACTCG | ≥ 0.0893
CGGCGTAC | inactive: -0.0593
AACGCAAA | inactive: -0.0112
ATAACGCG | inactive: 0.0282
GCATTAAA | inactive: 0.155
AGAAGTGA | inactive: 0.0244
ATCTTAGC | inactive: -0.0153
AACACCAT | ≥ 0.247
ACAAAAAT | inactive: 0.202
AATGGTCA | ≥ 0.146
GCTGAATA | inactive: 0.0918
TGCTAAAA | inactive: 0.0283
CAATTCTG | inactive: -0.00857
CGCGACCC | inactive: -0.2
TCGACAGA | inactive: 0.072
GATCGGCA | inactive: -0.0784
CACTATCC | inactive: 0.0331
CCGATGGC | inactive: -0.166
AAAAAAGC | inactive: -0.0704
GGGAGAAC | inactive: -0.124
TAGATCGA | inactive: 0.0428
AGCCCTTG | inactive: -0.0523
GATTGCTA | inactive: 0.0183

Sequence | PBM E-score
ACTTGCAA | inactive: 0.145
AAGGTAAC | inactive: 0.089
ATGGGCAA | ≥ -0.0275
TGGGCACA | inactive: -0.127
GTGTGAAC | inactive: 0.0865
AACCCTGT | inactive: 0.104
ATTGTTTG | inactive: 0.201
TCAGTTCA | inactive: 0.025
ACCAGCAT | ≥ 0.0668
AGAATAGA | inactive: 0.076
ACGCATTA | inactive: 0.094
AGGATACT | inactive: -0.0169
ATTTAGGG | inactive: 0.00282
AACGTTCT | inactive: -0.024
ATGCCATA | ≥ 0.128
AGAGGGCT | inactive: -0.15
CCGTCACC | inactive: -0.211
ACATCAGG | inactive: 0.133
CGGATGTC | inactive: 0.0941
ACGGAAGT | inactive: -0.0425
ACCATCCT | inactive: 0.0551
TCTGTAAA | inactive: 0.0832
ACCAAGGT | inactive: -0.0505
CGCTGGGA | inactive: -0.154
